Test results taken from the supplement of paper PMC13016719.

Experiments:
Assay in all cases: Reference broth microdilution (once per isolate) and two commercial panels; inhibitor fixed at 4 µg/mL.
[1] = compound: CC(C)(O/N=C(\C(=O)N[C@@H]1C(=O)N2C(C(=O)[O-])=C(C[n+]3ccccc3)CS[C@H]12)c1csc(N)n1)C(=O)O [ceftazidime] (with: avibactam 4 µg/mL)
[2] = compound: C[C@@H](O)[C@H]1C(=O)N2C(C(=O)O)=C(SCCNC=N)C[C@H]12 [imipenem]; conditions: reference broth microdilution
[3] = compound: Cn1c(N)c(NC(=O)NCCN)c[n+]1CC1=C(C(=O)[O-])N2C(=O)[C@@H](NC(=O)/C(=N\OC(C)(C)C(=O)O)c3nsc(N)n3)[C@H]2SC1 [ceftolozane] (with: tazobactam 4 µg/mL)

Row | Test System | MIC ([1]; BD Phoenix panel) | MIC ([1]; reference broth microdilution) | MIC [2] | MIC ([3]; BD Phoenix panel) | MIC ([3]; reference broth microdilution) | MIC ([1]; Sensititre panel) | MIC ([3]; Sensititre panel)
1 | Pseudomonas aeruginosa isolate 73 (PDC allele: blaPDC-34) | 1 µg/mL | ≤ 4 µg/mL | ≤ 1 µg/mL | ≤ 1 µg/mL | ≤ 1 µg/mL |  | 
2 | Pseudomonas aeruginosa isolate 74 (PDC allele: blaPDC-34) | 2 µg/mL | ≤ 4 µg/mL | 4 µg/mL | 2 µg/mL | 2 µg/mL |  | 
3 | Pseudomonas aeruginosa isolate 75 (PDC allele: blaPDC-5) | > 8 µg/mL | ≥ 32 µg/mL | 8 µg/mL | 4 µg/mL | 8 µg/mL | > 16 µg/mL | 8 µg/mL
4 | Pseudomonas aeruginosa isolate 76 (PDC allele: blaPDC-15) | 8 µg/mL | 8 µg/mL | 4 µg/mL | ≤ 1 µg/mL | ≤ 1 µg/mL | 8 µg/mL | 
5 | Pseudomonas aeruginosa isolate 77 (PDC allele: blaPDC-109) | 8 µg/mL | ≤ 4 µg/mL | ≤ 1 µg/mL | 2 µg/mL | 2 µg/mL | ≤ 4 µg/mL | 4 µg/mL
6 | Pseudomonas aeruginosa isolate 79 (PDC allele: blaPDC-16) | 2 µg/mL | ≤ 4 µg/mL | > 8 µg/mL | ≤ 1 µg/mL | ≤ 1 µg/mL |  | 
7 | Pseudomonas aeruginosa isolate 80 (PDC allele: blaPDC-5) | > 8 µg/mL | 16 µg/mL | 4 µg/mL | ≤ 1 µg/mL | ≤ 1 µg/mL |  | 
8 | Pseudomonas aeruginosa isolate 81 (PDC allele: blaPDC-5) | > 8 µg/mL | 16 µg/mL | 2 µg/mL | 2 µg/mL | ≤ 1 µg/mL |  | 
9 | Pseudomonas aeruginosa isolate 82 (PDC allele: blaPDC-71) | 2 µg/mL | ≤ 4 µg/mL | > 8 µg/mL | 2 µg/mL | ≤ 1 µg/mL |  | 
10 | Pseudomonas aeruginosa isolate 83 (PDC allele: blaPDC-34) | 4 µg/mL | ≤ 4 µg/mL | ≤ 1 µg/mL | ≤ 1 µg/mL | ≤ 1 µg/mL |  | 
11 | Pseudomonas aeruginosa isolate 84 (PDC allele: blaPDC-56) | 8 µg/mL | 8 µg/mL | > 8 µg/mL | 2 µg/mL | 2 µg/mL |  | 
12 | Pseudomonas aeruginosa isolate 85 (PDC allele: blaPDC-3, ftsI change: ftsI_R504C) | > 8 µg/mL | 16 µg/mL | > 8 µg/mL | 4 µg/mL | 2 µg/mL | 16 µg/mL | 4 µg/mL
13 | Pseudomonas aeruginosa isolate 86 (PDC allele: blaPDC-1) | 1 µg/mL | ≤ 4 µg/mL | 8 µg/mL | ≤ 1 µg/mL | ≤ 1 µg/mL | ≤ 4 µg/mL | 2 µg/mL
14 | Pseudomonas aeruginosa isolate 88 (PDC allele: blaPDC-5) | 2 µg/mL | ≤ 4 µg/mL | 4 µg/mL | 2 µg/mL | 4 µg/mL |  | 
15 | Pseudomonas aeruginosa isolate 89 (PDC allele: blaPDC-3) | ≤ 0.25 µg/mL | 8 µg/mL | ≤ 1 µg/mL | ≤ 1 µg/mL | 4 µg/mL | ≤ 4 µg/mL | ≤ 1 µg/mL
16 | Pseudomonas aeruginosa isolate 90 (PDC allele: blaPDC-71) | 2 µg/mL | ≤ 4 µg/mL | 8 µg/mL | ≤ 1 µg/mL | 4 µg/mL | ≤ 4 µg/mL | ≤ 1 µg/mL
17 | Pseudomonas aeruginosa isolate 91 (PDC allele: blaPDC-3) | 8 µg/mL | 8 µg/mL | > 8 µg/mL | 2 µg/mL | 4 µg/mL |  | 
18 | Pseudomonas aeruginosa isolate 92 (PDC allele: blaPDC-8) | 4 µg/mL | ≤ 4 µg/mL | 8 µg/mL | ≤ 1 µg/mL | ≤ 1 µg/mL | ≤ 4 µg/mL | ≤ 1 µg/mL
19 | Pseudomonas aeruginosa isolate 93 (PDC allele: blaPDC-30) | 4 µg/mL | ≤ 4 µg/mL | 8 µg/mL | 4 µg/mL | 2 µg/mL | ≤ 4 µg/mL | ≤ 1 µg/mL
20 | Pseudomonas aeruginosa isolate 95 (PDC allele: blaPDC-8) | > 8 µg/mL | 16 µg/mL | 2 µg/mL | 2 µg/mL | 2 µg/mL | 16 µg/mL | 2 µg/mL
21 | Pseudomonas aeruginosa isolate 97 (PDC allele: blaPDC-12) | 8 µg/mL | 16 µg/mL | > 8 µg/mL | 2 µg/mL | 4 µg/mL | > 16 µg/mL | 4 µg/mL
22 | Pseudomonas aeruginosa isolate 98 (PDC allele: blaPDC-1) | 8 µg/mL | 16 µg/mL | > 8 µg/mL | 2 µg/mL | 4 µg/mL |  | 

MIC of multidrug-resistant clinical P. aeruginosa isolates by reference broth microdilution, Sensititre or Phoenix panel; µg/mL of the β-lactam, with the inhibitor fixed at 4 µg/mL where named; higher = less susceptible; each panel covers only a few steps. No active / inactive call per row; the paper applies CLSI M100 breakpoints. The methods often differ by one or more steps on the same isolate. Several isolates can come from one patient. PDC is the chromosomal AmpC β-lactamase of the species; the number names its allele. Isolates are numbered anew.
